# From article PMC4336329 (PLoS ONE, 2015)
# About 2,200 (0.71%) of roughly 310,000 compounds showed an effect of 50% or more. The effect is printed as a negative number. The list shows a part of the results.
# Biological target: human ether-à-go-go-related gene (hERG) potassium channel (human, UniProt Q12809)
# Assay: primary screen, population patch clamp on CHO cells stably expressing hERG
# human ether-à-go-go-related gene (hERG) potassium channel, sequence (Q12809 whole entry, looked up): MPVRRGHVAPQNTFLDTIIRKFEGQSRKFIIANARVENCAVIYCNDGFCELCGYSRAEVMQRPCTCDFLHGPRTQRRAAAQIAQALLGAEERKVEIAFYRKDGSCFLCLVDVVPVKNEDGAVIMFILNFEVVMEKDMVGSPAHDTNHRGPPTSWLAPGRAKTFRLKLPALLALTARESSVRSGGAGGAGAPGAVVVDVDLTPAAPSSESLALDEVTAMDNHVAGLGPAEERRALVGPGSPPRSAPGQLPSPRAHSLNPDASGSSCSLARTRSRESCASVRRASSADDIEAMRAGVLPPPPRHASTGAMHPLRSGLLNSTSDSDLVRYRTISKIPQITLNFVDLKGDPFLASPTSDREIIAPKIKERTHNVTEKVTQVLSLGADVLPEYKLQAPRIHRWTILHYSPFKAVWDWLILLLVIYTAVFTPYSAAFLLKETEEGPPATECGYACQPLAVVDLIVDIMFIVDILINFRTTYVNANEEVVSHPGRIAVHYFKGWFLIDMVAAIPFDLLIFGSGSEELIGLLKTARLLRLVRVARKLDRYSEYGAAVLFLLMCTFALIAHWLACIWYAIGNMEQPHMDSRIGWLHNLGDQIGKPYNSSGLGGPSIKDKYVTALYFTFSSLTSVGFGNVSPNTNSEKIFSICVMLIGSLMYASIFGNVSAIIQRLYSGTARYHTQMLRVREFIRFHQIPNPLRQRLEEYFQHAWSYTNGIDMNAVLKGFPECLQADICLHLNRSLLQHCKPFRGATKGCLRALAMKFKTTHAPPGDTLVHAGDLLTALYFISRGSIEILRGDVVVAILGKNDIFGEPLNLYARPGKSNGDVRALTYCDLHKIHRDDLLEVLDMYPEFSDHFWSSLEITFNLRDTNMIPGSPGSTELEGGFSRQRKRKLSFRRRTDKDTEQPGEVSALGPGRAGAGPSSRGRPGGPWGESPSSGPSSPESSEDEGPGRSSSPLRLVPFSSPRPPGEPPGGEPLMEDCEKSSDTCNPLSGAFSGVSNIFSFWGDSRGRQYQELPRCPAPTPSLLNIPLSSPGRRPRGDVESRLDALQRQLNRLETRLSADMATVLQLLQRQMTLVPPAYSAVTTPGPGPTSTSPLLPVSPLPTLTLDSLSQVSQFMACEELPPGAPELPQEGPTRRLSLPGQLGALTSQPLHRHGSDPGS
row,Compound,"hERG current change (%, negative = inhibition) at 1uM"
1,O=C(NCCCN1CCOCC1)c1ccc(CS(=O)(=O)c2c(Cl)cccc2Cl)o1,4.69%
2,CCN(C(=O)c1ccc(Br)o1)C1CCS(=O)(=O)C1 (centres unmarked),5.63%
3,c1ccc2nc(-c3ccncc3)ccc2c1,14.8%
4,CC[C@@H](C)[C@H](NC(=O)Cc1c(C)c2cc3c(C)coc3c(C)c2oc1=O)C(=O)O,-0.576%
5,Nc1ccc[n+](Cc2ccccn2)c1.[Br-],17%
6,CCCN1Cc2cccc(C(=O)N3CCN(c4ccccc4)CC3)c2C1=O,10.9%
7,O=c1c2ccccc2c(C=NCCCN2CCOCC2)c(O)n1Cc1ccc2c(c1)OCO2,-1.96%
8,CCOC(=O)c1ccc(Nc2cc(C)nc(C)c2C(=O)OCC)cc1.Cl,-34.6%
9,Cc1cc(C)nc(N2CCCC(C(=O)Nc3ccc4c(c3)OCCO4)C2)n1 (centres unmarked),14.7%
10,C=Cc1cccc(NC(=O)c2ccc(NC(=O)c3ccco3)cc2)c1,5.9%
11,CCOC(=O)C1(Cc2ccccc2)CCCN(C(=O)c2cn[nH]c2)C1 (centres unmarked),16.1%
12,Cn1cc(/C=C2/SC(=O)N(c3ccccc3)C2=O)c2ccccc21,8.81%
13,COCC(=O)N(CCN(C)C)Cc1cc2cc3c(cc2nc1Cl)OCO3.Cl,14%
14,CC(=O)c1ccc(NS(=O)(=O)c2ccc3c(c2)N(C)CCO3)cc1,1.5%
15,CCOc1ccc2nc(Cl)c(C3CC(c4ccco4)=NN3S(=O)(=O)c3ccccc3)cc2c1 (centres unmarked),3.86%
16,COc1ccc(-n2ncc3c2CC(C)(C)CC3NC(=O)CCn2nc(C)cc2C)cc1 (centres unmarked),-3.22%
17,COC(=O)Cc1c(C)c2ccc(OCC(=O)NC3CCS(=O)(=O)C3)cc2oc1=O (centres unmarked),23.7%
18,O=C(COC(=O)c1cc(Cl)nc2ccccc12)c1ccc(Cl)cc1,15.7%
19,Br.O=C(Cn1c(NCCCO)nc2ccccc21)c1ccco1,12.3%

row,Compound,"hERG current change (%, negative = inhibition) at 1uM"
1,Cc1ccc(NS(=O)(=O)c2ccc3c(c2)n(C)c(=O)n3C)c(C)c1,5.84%
2,COc1ccc(N=C2SC(C(=O)O)CC(=O)N2Cc2ccc(OC)c(OC)c2)cc1 (centres unmarked),10.8%
3,Cc1cc(S(=O)(=O)N2CCCOC2CNC(=O)C(=O)NCCc2ccco2)ccc1F (centres unmarked),17.8%
4,COc1ccc(C2=NN(c3ccc(C(=O)O)cc3)C(c3ccc(OC)c(OC)c3)C2)cc1 (centres unmarked),2.87%
5,CCC(NC(=O)NCc1ccccc1)(C(F)(F)F)C(F)(F)F,6.8%
6,O=C(CN(CC1CCCO1)C(=O)CCC(=O)Nc1nccs1)NCC1CCCO1 (centres unmarked),5.17%
7,CCCCNC(=O)Cn1nc(-c2ccc(C)cc2)ccc1=O,13.2%
8,CCC(C)C(NS(=O)(=O)c1ccc(C)cc1)C(=O)NCCCN1CCOCC1 (centres unmarked),28.3%
9,C=CCSc1nnc(-c2nnc(SCC=C)n2-c2ccccc2)n1-c1ccccc1,1.06%
10,Cn1cc(CN2CCC(O)CC2)c(-c2ccc(Oc3ccccc3)cc2)n1,1.32%
11,O=[N+]([O-])c1cccc(C=Nc2cccc3ccccc23)c1O,15.8%
12,CC(=O)Nc1nnc(SCC(=O)N2CCCc3ccccc32)s1,7.15%
13,O=C(NNC(=S)Nc1ccccc1)c1cc(Br)ccc1Cl,13.6%
14,CCc1cc2c(Nc3ccc(O)cc3)nc(C)nc2s1.Cl,15.9%
15,COc1ccc(C(=O)N2CCN(Cc3ccccc3)CC2)cc1[N+](=O)[O-],-22.3%
16,COc1ccc(NC(=O)CN2CCCN(S(=O)(=O)c3ccc(F)cc3)CC2)cc1,-25.9%
17,CC(=O)NCCc1nc2cc(NC(=O)c3ccc(Cl)cc3)ccc2n1C,13.2%
18,O=C(NCc1cccs1)C(=O)NCC(c1ccco1)N1CCN(c2ccccc2F)CC1 (centres unmarked),2.9%
19,CN(C)CCCNC(=O)c1cc(C(=O)c2ccc(F)cc2)c[nH]1,-3.7%

row,Compound,"hERG current change (%, negative = inhibition) at 1uM"
1,Br.c1ccc(-c2csc(Nc3ccc4c(c3)OCCO4)n2)cc1,7.58%
2,COc1cc(NC(=S)NN2CCN(C)CC2)cc(OC)c1OC,-0.636%
3,Cn1cc(CN2CCc3sccc3C2)c(-c2ccccc2F)n1,7.89%
4,COc1ccccc1C(=O)NC1CC(C)(C)NC(C)(C)C1,17.9%
5,COc1cc(NC(=O)CN2CCCCC2C)c(C)cc1[N+](=O)[O-] (centres unmarked),9.13%
6,COc1ccc(N(C(=O)C2CCCCC2)S(=O)(=O)c2cccc3cccnc23)cc1,7.12%
7,COc1ccc(C2=CC(c3ccc(C)cc3)n3nnnc3N2)cc1 (centres unmarked),-16.9%
8,COc1ccc(-c2coc3cc(OC4OC(CO)C(O)C(O)C4O)ccc3c2=O)cc1 (centres unmarked),6.45%
9,Nc1ccccc1C(=O)Nc1cccc2ccccc12,13.4%
10,COc1ccc(N(CC(=O)NC2CCCCC2)C(=O)CCC(=O)Nc2nc(C)cs2)cc1OC,8.54%
11,CC(NC(=O)c1ccc(F)cc1)c1ccc(F)cc1 (centres unmarked),-5.09%
12,O=C(NCc1ccccn1)c1ccc(-c2ccccc2)cc1,12.9%
13,COC(=O)c1ccc(C)c(NS(=O)(=O)c2ccc(NC(C)=O)cc2)c1,4.87%
14,O=C(Nc1ccc2c(c1)C(=O)OC2)c1ccc(Cl)cc1Cl,3.09%
15,O=C(Cn1cnc2ccccc2c1=O)NCCC(=O)N1CCC2(CC1)OCCO2,15.6%
16,Cc1ccc(NS(=O)(=O)c2ccc(-c3ccc(=O)[nH]n3)o2)cc1N(C)C,2.08%
17,Cc1ccc(NC(=O)CCC(=O)N/N=C/c2cccnc2)cc1,10.5%
18,CCCCNC(=O)NS(=O)(=O)c1ccc(C)cc1,12%
